Results as given in PMC12003892.
Where two headings read alike, the source gives them in different places. These are yes or no findings as the source states them, for the method shown. For part of these data: Binding seen in cells or lysates may run through a third protein. Some binding calls cover weakened binding; strength is not graded here. For part of these data: Sequences can lack the tags named with a protein.

By UniProt entry, the sequences of proteins in these tests, tags left out. Residues count along the entry.
UniProt Q9H2K0, residues 32-278: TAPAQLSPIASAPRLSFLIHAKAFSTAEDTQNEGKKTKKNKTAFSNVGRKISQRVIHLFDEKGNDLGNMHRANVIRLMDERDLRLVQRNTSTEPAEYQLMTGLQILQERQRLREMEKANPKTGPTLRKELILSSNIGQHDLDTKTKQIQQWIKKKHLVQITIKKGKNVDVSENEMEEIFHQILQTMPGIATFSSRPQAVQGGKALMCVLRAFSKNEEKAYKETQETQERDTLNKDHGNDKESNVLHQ
UniProt Q96CB9, residues 26-384: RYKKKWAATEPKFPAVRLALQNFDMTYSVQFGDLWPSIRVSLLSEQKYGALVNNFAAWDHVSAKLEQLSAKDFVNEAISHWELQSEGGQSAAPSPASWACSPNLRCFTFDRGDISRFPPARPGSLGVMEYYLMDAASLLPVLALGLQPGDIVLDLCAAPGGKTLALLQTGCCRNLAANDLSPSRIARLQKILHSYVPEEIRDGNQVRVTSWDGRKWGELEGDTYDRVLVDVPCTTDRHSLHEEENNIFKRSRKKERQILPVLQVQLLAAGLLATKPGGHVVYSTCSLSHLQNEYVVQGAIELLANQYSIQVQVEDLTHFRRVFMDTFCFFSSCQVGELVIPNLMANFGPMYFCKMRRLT
UniProt Q8WVM0, residues 28-346: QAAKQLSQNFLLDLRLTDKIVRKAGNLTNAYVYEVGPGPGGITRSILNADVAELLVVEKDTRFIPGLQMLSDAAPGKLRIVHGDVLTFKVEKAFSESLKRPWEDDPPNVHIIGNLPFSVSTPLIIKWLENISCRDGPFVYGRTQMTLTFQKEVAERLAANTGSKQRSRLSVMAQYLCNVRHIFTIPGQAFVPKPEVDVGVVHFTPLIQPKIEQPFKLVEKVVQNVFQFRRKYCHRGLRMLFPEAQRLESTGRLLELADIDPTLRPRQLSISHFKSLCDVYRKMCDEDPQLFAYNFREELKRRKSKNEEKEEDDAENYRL

Tests used:
[1] = biological target: T1, MTG3^FLAG (C-terminally FLAG-tagged MTG3) (human) (UniProt Q8NC60); experiment: co-IP; anti-FLAG M2 Affinity Gel, 1 h, with lysed mitochondria or mitoplasts of HEK293 lines expressing the FLAG-tagged bait; 20 mM Tris-HCl or HEPES-KOH pH 7.4, 100 mM NH4Cl or KCl, 20 mM MgCl2, 10% glycerol, 1% Triton X-100, in some cases 0.5 mM GppNHp; eluted with FLAG peptides; western blotting
T1 sequence: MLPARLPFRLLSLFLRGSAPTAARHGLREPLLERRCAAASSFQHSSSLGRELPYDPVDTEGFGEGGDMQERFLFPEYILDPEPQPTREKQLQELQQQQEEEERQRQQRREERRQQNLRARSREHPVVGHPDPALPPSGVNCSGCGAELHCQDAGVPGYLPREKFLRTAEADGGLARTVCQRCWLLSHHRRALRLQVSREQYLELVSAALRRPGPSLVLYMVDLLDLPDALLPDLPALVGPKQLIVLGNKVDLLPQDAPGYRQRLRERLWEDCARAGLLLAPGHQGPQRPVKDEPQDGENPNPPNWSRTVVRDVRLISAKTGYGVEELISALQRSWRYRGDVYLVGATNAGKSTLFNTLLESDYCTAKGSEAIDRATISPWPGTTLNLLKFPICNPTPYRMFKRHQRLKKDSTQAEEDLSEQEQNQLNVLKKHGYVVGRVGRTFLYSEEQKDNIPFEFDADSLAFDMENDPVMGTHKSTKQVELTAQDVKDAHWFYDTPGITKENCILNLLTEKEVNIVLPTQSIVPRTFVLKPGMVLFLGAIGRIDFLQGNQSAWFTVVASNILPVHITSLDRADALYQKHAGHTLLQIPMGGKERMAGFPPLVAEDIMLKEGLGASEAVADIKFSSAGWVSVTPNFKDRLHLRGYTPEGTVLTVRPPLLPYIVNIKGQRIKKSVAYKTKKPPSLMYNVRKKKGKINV

MTG3-G499P^FLAG (human) [2] = biological target: T2, MTG3-G499P^FLAG (human) (UniProt Q8NC60); experiment: as above
T2 sequence: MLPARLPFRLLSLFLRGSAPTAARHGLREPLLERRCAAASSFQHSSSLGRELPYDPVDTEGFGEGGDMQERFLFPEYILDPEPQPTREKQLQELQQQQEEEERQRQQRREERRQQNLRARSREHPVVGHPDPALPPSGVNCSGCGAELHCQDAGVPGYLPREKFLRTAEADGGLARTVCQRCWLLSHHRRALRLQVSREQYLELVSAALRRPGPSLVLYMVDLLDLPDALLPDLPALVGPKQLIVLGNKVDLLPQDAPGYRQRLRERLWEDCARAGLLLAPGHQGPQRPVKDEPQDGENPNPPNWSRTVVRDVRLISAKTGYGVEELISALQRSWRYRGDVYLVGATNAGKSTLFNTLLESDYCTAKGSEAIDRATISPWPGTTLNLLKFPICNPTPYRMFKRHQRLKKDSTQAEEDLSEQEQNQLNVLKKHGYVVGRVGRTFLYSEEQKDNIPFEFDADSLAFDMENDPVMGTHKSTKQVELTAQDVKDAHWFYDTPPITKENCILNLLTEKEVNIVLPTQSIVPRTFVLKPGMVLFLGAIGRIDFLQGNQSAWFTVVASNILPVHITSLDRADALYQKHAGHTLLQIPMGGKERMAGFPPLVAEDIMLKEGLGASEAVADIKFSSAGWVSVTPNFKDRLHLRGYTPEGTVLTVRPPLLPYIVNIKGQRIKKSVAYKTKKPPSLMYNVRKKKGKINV

ERAL1^FLAG (human) [3] = biological target: T3, ERAL1^FLAG (human) (UniProt O75616); experiment: as above
T3 sequence: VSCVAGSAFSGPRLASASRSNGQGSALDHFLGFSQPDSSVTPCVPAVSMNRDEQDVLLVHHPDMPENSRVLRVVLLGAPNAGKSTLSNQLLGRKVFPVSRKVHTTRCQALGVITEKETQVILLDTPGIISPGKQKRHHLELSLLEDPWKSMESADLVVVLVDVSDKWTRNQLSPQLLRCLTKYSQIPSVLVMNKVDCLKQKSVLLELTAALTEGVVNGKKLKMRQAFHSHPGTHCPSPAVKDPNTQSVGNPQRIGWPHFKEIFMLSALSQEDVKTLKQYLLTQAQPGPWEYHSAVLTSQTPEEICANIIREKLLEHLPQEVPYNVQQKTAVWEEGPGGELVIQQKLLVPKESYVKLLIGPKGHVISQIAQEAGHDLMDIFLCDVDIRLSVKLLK

[4] = biological target: T1, MTG3^FLAG (C-terminally FLAG-tagged MTG3) (human); experiment: cryo-EM structure; native mtSSU complexes from lysed mitoplasts isolated by FLAG-immunoprecipitation of MTG3^FLAG, eluate crosslinked with 0.15% glutaraldehyde; single-particle cryo-EM, states A-G
mtIF3^FLAG (human) = mtIF3^FLAG (human) (UniProt Q9H2K0); experiment: co-IP; anti-FLAG M2 Affinity Gel, 1 h, with lysed mitochondria or mitoplasts of HEK293 lines expressing the FLAG-tagged bait; 20 mM Tris-HCl or HEPES-KOH pH 7.4, 100 mM NH4Cl or KCl, 20 mM MgCl2, 10% glycerol, 1% Triton X-100, in some cases 0.5 mM GppNHp; eluted with FLAG peptides; western blotting
[5] = biological target: T1, MTG3^FLAG (C-terminally FLAG-tagged MTG3) (human); experiment: as above; remark: listed apart in the source
MTG3-G499P^FLAG (human) [6] = biological target: T2, MTG3-G499P^FLAG (human); experiment: as above; remark: listed apart in the source
ERAL1^FLAG (human) [7] = biological target: T3, ERAL1^FLAG (human); experiment: as above; remark: listed apart in the source

NSUN4 (from UniProt Q96CB9 26-384) (enzyme)
binding [1]: no binding

TFB1M (from UniProt Q8WVM0 28-346) (enzyme)
binding [1]: binds | binding (MTG3-G499P^FLAG (human) [2]): binds | binding (ERAL1^FLAG (human) [3]): binds | binding [4]: binds

mtIF3 (endogenous) (from UniProt Q9H2K0 32-278)
binding [1]: binds | binding [4]: binds

B1: mtIF2 (protein, UniProt P46199 30-727)
chain: LRQWRHGFSSAYPVWTAQLCAWPWPTDVLTGAALSQYRLLVTKKEEGPWKSQLSSTKSKKVVEVWIGMTIEELARAMEKNTDYVYEALLNTDIDIDSLEADSHLDEVWIKEVITKAGMKLKWSKLKQDKVRKNKDAVRRPQADPALLTPRSPVVTIMGHVDHGKTTLLDKFRKTQVAAVETGGITQHIGAFLVSLPSGEKITFLDTPGHAAFSAMRARGAQVTDIVVLVVAADDGVMKQTVESIQHAKDAQVPIILAVNKCDKAEADPEKVKKELLAYDVVCEDYGGDVQAVPVSALTGDNLMALAEATVALAEMLELKADPNGPVEGTVIESFTDKGRGLVTTAIIQRGTLRKGSVLVAGKCWAKVRLMFDENGKTIDEAYPSMPVGITGWRDLPSAGEEILEVESEPRAREVVDWRKYEQEQEKGQEDLKIIEEKRKEHKEAHQKAREKYGHLLWKKRSILRFLERKEQIPLKPKEKRERDSNVLSVIIKGDVDGSVEAILNIIDTYDASHECELELVHFGVGDVSANDVNLAETFDGVIYGFNVNAGNVIQQSAAKKGVKIKLHKIIYRLVEDLQEELSSRLPCAVEEHPVGEASILATFSVTEGKKKVPVAGCRVQKGQLEKQKKFKLTRNGHVIWKGSLTSLKHHKDDISIVKTGMDCGLSLDEDNMEFQVGDRIVCYEEKQIQAKTSWDPGF
binding (mtIF3^FLAG (human)): binds | binding [5]: binds | binding [4]: binds

B2: mtRBFA (protein, UniProt Q8N0V3 42-343)
chain: KNWLKKFASKTKKKVWYESPSLGSHSTYKPSKLEFLMRSTSKKTRKEDHARLRALNGLLYKALTDLLCTPEVSQELYDLNVELSKVSLTPDFSACRAYWKTTLSAEQNAHMEAVLQRSAAHMRHLLMSQQTLRNVPPIVFVQDKGNAALAELDQLLAVADFGPRDERDNFVQNDFRDPDAPQPCGTTEPTTSSSLCGIDHEALNKQIMEYKRRKDKGLGGLVWQGQVAELTTQMKKGRKRAKPRLEQDSSLKSYLSGEEVEDDLDLVGAPEYECYAPDTEELEAERGGGRTEDGHSCGASRE
binding (mtIF3^FLAG (human)): binds | binding [5]: binds | binding (MTG3-G499P^FLAG (human) [6]): no binding | binding [4]: binds

B3: MTG3 (endogenous) (protein, UniProt Q8NC60 1-698)
chain: MLPARLPFRLLSLFLRGSAPTAARHGLREPLLERRCAAASSFQHSSSLGRELPYDPVDTEGFGEGGDMQERFLFPEYILDPEPQPTREKQLQELQQQQEEEERQRQQRREERRQQNLRARSREHPVVGHPDPALPPSGVNCSGCGAELHCQDAGVPGYLPREKFLRTAEADGGLARTVCQRCWLLSHHRRALRLQVSREQYLELVSAALRRPGPSLVLYMVDLLDLPDALLPDLPALVGPKQLIVLGNKVDLLPQDAPGYRQRLRERLWEDCARAGLLLAPGHQGPQRPVKDEPQDGENPNPPNWSRTVVRDVRLISAKTGYGVEELISALQRSWRYRGDVYLVGATNAGKSTLFNTLLESDYCTAKGSEAIDRATISPWPGTTLNLLKFPICNPTPYRMFKRHQRLKKDSTQAEEDLSEQEQNQLNVLKKHGYVVGRVGRTFLYSEEQKDNIPFEFDADSLAFDMENDPVMGTHKSTKQVELTAQDVKDAHWFYDTPGITKENCILNLLTEKEVNIVLPTQSIVPRTFVLKPGMVLFLGAIGRIDFLQGNQSAWFTVVASNILPVHITSLDRADALYQKHAGHTLLQIPMGGKERMAGFPPLVAEDIMLKEGLGASEAVADIKFSSAGWVSVTPNFKDRLHLRGYTPEGTVLTVRPPLLPYIVNIKGQRIKKSVAYKTKKPPSLMYNVRKKKGKINV
binding (mtIF3^FLAG (human)): binds | binding (ERAL1^FLAG (human) [7]): binds

B4: ERAL1 (endogenous) (protein, UniProt O75616 44-437)
chain: VSCVAGSAFSGPRLASASRSNGQGSALDHFLGFSQPDSSVTPCVPAVSMNRDEQDVLLVHHPDMPENSRVLRVVLLGAPNAGKSTLSNQLLGRKVFPVSRKVHTTRCQALGVITEKETQVILLDTPGIISPGKQKRHHLELSLLEDPWKSMESADLVVVLVDVSDKWTRNQLSPQLLRCLTKYSQIPSVLVMNKVDCLKQKSVLLELTAALTEGVVNGKKLKMRQAFHSHPGTHCPSPAVKDPNTQSVGNPQRIGWPHFKEIFMLSALSQEDVKTLKQYLLTQAQPGPWEYHSAVLTSQTPEEICANIIREKLLEHLPQEVPYNVQQKTAVWEEGPGGELVIQQKLLVPKESYVKLLIGPKGHVISQIAQEAGHDLMDIFLCDVDIRLSVKLLK
binding [5]: binds | binding (MTG3-G499P^FLAG (human) [6]): binds
